We go through four molecules from US20240174760A1 (ZHEJIANG NANOMAB TECHNOLOGY CENTER, published 2024).

A word on the EC50: it is the midpoint of the concentration-response curve. Lower therefore signals greater potency. A word on the IC50: it is the concentration that gives 50% inhibition. Read a high IC50 as a need for much substance. For orientation: Kd means the concentration at which binding is half-saturated. Read a high Kd as lower affinity. The koff is the rate constant with which the complex falls apart. Read a high koff as fast dissociation. In general, kon refers to the rate constant with which the complex forms. Low values mean slow association, high ones fast association.

Assay [1] deals with T1, biotin-TACI (Acrobiosystems, TAI-H82F6) (human, UniProt O14836 2-166, limits assumed, biotin).
T1 construct: Bought protein; also called human TACI
T1 sequence (looked up): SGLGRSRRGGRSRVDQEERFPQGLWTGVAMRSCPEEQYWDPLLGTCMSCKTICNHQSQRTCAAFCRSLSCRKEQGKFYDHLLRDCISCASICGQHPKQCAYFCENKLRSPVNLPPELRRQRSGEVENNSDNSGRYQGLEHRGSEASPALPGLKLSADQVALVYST
In words: ELISA, antibody coated, biotin-TACI in solution.

Assay [2] addresses T2, biotin-BAFFR (Acrobiosystems, BAR-H5257) (human, UniProt Q96RJ3 7-71, limits assumed, biotin).
T2 construct: Bought protein; also called human BAFFR
T2 sequence (looked up): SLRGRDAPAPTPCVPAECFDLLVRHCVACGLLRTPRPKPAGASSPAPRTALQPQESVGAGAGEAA
The assay is described as follows: ELISA, antibody coated, biotin-BAFFR in solution. (ELISA stands for enzyme-linked immunosorbent assay.)

Assay [3] has as its target T3, mouse BCMA his tag (Acrobiosystems, BCA-M52H3) (mouse, UniProt O88472 1-49).
T3 construct: Bought protein; also called murine BCMA; not shown: his tag
T3 chain (looked up): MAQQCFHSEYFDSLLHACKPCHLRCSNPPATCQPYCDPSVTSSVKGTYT
The assay is described as follows: ELISA on coated mouse BCMA his tag.

Assay [4] has as its target T4, cynomolgus BCMA his tag (Acrobiosystems, BCA-C52H7) (cynomolgus, UniProt A0A2K5UD97 1-53).
T4 construct: Bought protein; also called Cyno BCMA his tag; not shown: his tag
T4 sequence (A0A2K5UD97 entry or part of it): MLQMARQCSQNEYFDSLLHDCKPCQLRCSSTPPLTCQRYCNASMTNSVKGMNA
In words: ELISA on coated cynomolgus BCMA his tag.

Assay [5] addresses T5, human BCMA his tag protein (Acrobiosystems, BCA-H522y) (human, UniProt Q02223 1-54).
T5 construct: Bought protein; also called BCMA/TNFR-His; human recombinant BCMA his tag; not shown: his tag
T5 sequence (looked up): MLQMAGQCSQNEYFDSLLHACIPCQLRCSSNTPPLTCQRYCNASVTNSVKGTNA
The assay is described as follows: comp. ELISA, competitor biotin-BAFF (ligand signal), Ab 19.5 ug/mL.

For assay [6], the target named is T5, human BCMA his tag protein …. In words: comp. ELISA, competitor biotin-APRIL (ligand signal), Ab 4.875 ug/mL.
For assay [7] the target is unchanged. In words: comp. ELISA, competitor biotin-BAFF (ligand signal), Ab 1.218 ug/mL.
The target is the same in assay [8]. The assay is described as follows: comp. ELISA, competitor biotin-APRIL (ligand signal), Ab 1.218 ug/mL.
The target in assay [9] is T6, human BCMA full-length protein on cells (human, UniProt Q02223 1-184).
T6 construct: whole, on cells; also called CHO-K1/BCMA; BCMA on RPMI8226, Jeko-1, Daudi cells
T6 sequence (looked up): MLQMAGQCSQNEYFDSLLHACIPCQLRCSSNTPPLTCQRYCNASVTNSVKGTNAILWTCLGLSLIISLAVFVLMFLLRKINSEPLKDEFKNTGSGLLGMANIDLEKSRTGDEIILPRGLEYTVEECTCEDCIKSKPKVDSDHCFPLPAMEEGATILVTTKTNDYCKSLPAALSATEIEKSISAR
The assay is described as follows: flow cytometry on CHO-K1/BCMA cells, anti-human IgG PE. In general terms: In flow cytometry, cells or beads pass a laser one at a time.

Assay [10] deals with T5, human BCMA his tag protein …. The assay is described as follows: comp. ELISA, competitor biotin-BAFF (ligand signal), Ab 78 ug/mL.
Assay [11] concerns the target T6, human BCMA full-length protein on cells. In words: flow cytometry competition on CHO-K1/BCMA cells; antibody titrated against biotin-APRIL, PE streptavidin readout.
The target in assay [12] is T5, human BCMA his tag protein …. In words: comp. ELISA, competitor biotin-APRIL (ligand signal), Ab 19.5 ug/mL.
The target is the same in assay [13]. The assay is described as follows: comp. ELISA, competitor biotin-APRIL (ligand signal), Ab 78 ug/mL.
The target is the same in assay [14]. The assay is described as follows: SPR Biacore T200, antibody captured on protein A, BCMA His analyte, 1:1 fit. For orientation: Surface plasmon resonance follows binding to a sensor surface in real time, without labels.
The target is the same in assay [15]. The assay is described as follows: comp. ELISA, competitor biotin-BAFF (ligand signal), Ab 4.875 ug/mL.

B1: NB-217 (Fc fusion)
heavy: EVQLVESGGGTVQPGGSLRLSCVASGFTFSPSAMSWVRQAPGKGLEWVSGIYSDGSTRYADSVKGRFTISRDNVKNTVYLQMNSLNPEDTAVYYCAVGIVVPYSEDAWYSTLRGQGTQVTVSS[human IgG1 Fc with changes not written out]
notes: also called NB-217 antibody; VHH-hIgG4
Turning to B1, the binding result in assay [1] is on record as “no binding (tested: 4 µg/mL)”; in assay [2], “no binding (tested: 4 µg/mL)”; in [3], “no binding (tested: 2 µg/mL)”; in assay [4], “no binding (tested: 2 µg/mL)”.

B2: NB-216 (Fc fusion)
heavy: QVQLVESGGGLVQPGGSLRLTCAASGSIFSIYAMGWYRQAPGKQRELVAAVTSAGNTFYRDSVKGRFTISRDNAKSTVYLQMNSLKPEDTAVYDCNSAPWGSYSPGPADVSSWGQGTLVTVSS[human IgG1 Fc with changes not written out]
notes: also called NB-216 antibody; VHH-hIgG4
As for B2, the binding result in assay [1] is “no binding (tested: 4 µg/mL)”; in assay [2], “no binding (tested: 4 µg/mL)”; in [3] it was “no binding (tested: 2 µg/mL)”; in [4], “no binding (tested: 2 µg/mL)”.

B3: NB-67 (Fc fusion)
heavy: QVQLVESGGGLVQPGGSLRLSCTASGSIFSIYAMGWYRQAPGKPRELVAAITSGSSTFYRDSVKGRFTISRDNAKNTVYLRMNSLKPEDTAVYYCNPAPWGDYTATDFHSWGQGTQVTVSS[human IgG1 Fc with changes not written out]
notes: also called NB-67 antibody; VHH-hIgG4
For B3, the OD450 turned out to be 0.03 OD450 in assay [5]; 1.49 OD450 in [6]; 3.23 OD450 in assay [7]; 2.89 OD450 in assay [8]; 0.02 OD450 in assay [10]; 0.32 OD450 in assay [12]. In addition, the OD450 was 0.08 OD450 in assay [13] and 0.82 OD450 in [15]. This molecule also gave a half-maximal effective concentration (EC50) in [9] of 1.76 nM. Also, the binding result in assay [1] is on record as “no binding (tested: 4 µg/mL)”; in assay [2] it was “no binding (tested: 4 µg/mL)”; in assay [3], “no binding (tested: 2 µg/mL)”; in assay [4] it was “no binding (tested: 2 µg/mL)”. This molecule showed an IC50 in [11] of 30.3 nM. The same molecule displayed a Kd in assay [14] of 0.0495 nM. The off-rate constant (koff) in [14] turned out to be 0.000296 s⁻¹. In assay [14], the on-rate constant (kon) came out at 5.98e+06 M⁻¹ s⁻¹.

B4: NB-222 (Fc fusion)
heavy: QVQLVESGGGLVQPGGSLRLSCAASGSIDRFYAMGWYRQAPGKSRTLVTAITSGGSTYYADSVKGRFTISRDNAKNMLYLQMNSLKPEDTAVYYCNAAPWGDYTAHDFASWGQGTQVTVSS[human IgG1 Fc with changes not written out]
notes: also called NB-222 antibody; VHH-hIgG4
As to B4, the binding result is listed as “no binding (tested: 4 µg/mL)” in assay [1], “no binding (tested: 4 µg/mL)” in [2], “no binding (tested: 2 µg/mL)” in [3] and “no binding (tested: 2 µg/mL)” in assay [4]. The molecule further showed an IC50 in [11] of 44.7 nM. In assay [14], this molecule yielded a dissociation constant (Kd) of 0.00731 nM. Moreover, the koff in assay [14] was 7.02e-05 s⁻¹. In assay [14], this molecule yielded a kon of 9.61e+06 M⁻¹ s⁻¹.
